The values below come from patent US20250000993A1, “ANTI-HUMAN CD33 BET DEGRADER ANTIBODY-DRUG CONJUGATES” (AbbVie Inc., priority 2023, published 2025).

One assay relates to control HEK-293 cells. In words: Flow cytometry (FACS titration) binding to control HEK-293 cells. The following applies: 4° C. for 2 hours. For orientation: A flow cytometer gives signals particle by particle.
Assay [1] deals with CD33-expressing HEK-293 cells (Homo sapiens, UniProt P20138). The assay can be described thus: Flow cytometry (FACS titration) binding to CD33-expressing HEK-293 cells. Conditions: 4° C. for 2 hours.
Chain of CD33-expressing HEK-293 cells (P20138 18-364): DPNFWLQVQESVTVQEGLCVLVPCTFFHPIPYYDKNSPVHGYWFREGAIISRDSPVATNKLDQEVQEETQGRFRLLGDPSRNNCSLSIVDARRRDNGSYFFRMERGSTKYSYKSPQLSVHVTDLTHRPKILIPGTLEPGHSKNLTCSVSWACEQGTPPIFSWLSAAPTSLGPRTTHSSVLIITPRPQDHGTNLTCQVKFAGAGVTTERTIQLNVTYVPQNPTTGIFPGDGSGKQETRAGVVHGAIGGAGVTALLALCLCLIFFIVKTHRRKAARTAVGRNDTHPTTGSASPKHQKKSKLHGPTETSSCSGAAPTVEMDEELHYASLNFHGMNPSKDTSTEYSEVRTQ

B1: mAb1: recombinant, humanized, IgG1 kappa monoclonal antibody that binds to CD33; heavy chain SEQ ID NO: 9 or 10 (Y296C, N297A), light chain SEQ ID NO: 11 (antibody)
heavy: EVQLVESGGGVVQPGRSLRLSCAASGFTLSDYAMAWVRQAPGKGLEWVATISYDAGRTYYRD[sequence of about 20 residues not given]MNSLRAEDTAVYYCERPPGVYYGSYWGQGTMVTVSSASTKGPSVFPLAPSSKSTSGGTAALGCLVKDYFPEPVTVSWNSGALTSGVHTFPAVLQSSGLYSLSSVVTVPSSSLGTQTYICNVNHKPSNTKVDKKV[sequence of human IgG1 Fc with Y296C N297A (EU numbers) not given]
light: DIQMTQSPSSLSASVGDRVTITCRASQDISNFLNWYQQKPGKVPKLLIYYTSNLQSGVPSRFSGSGSGTDFTLTISSLQPEDVATYYCQQYDESPPTFGQGTKLEIKRTVAAPSVFIFPPSDEQLKSGTASVVCLLNNFYPREAKVQWKVDNALQSGNSQESVTEQDSKDSTYSLSSTLTLSKADYEKHKVYACEVTHQGLSSPVTKSFNRGEC
Take B1: the “binding to control HEK-293 cells” value in the assay on control HEK-293 cells is reported as “not the control HEK-293 cells”. In addition, the “binding to CD33-expressing HEK-293 cells” value in assay [1] is on record as “binds specifically”.
